B1: MVP(D39A, R42A) (natural protein)
chain: not shown
notes: major vault protein, human, gene GenBank BC015623.2 in pGAPZB, mutated by PCR; Mixture of full vaults (78-mer) and half vaults (39-mer); same construct as m1 apart from the mutations; also called hMVP D39A-R42A; source: K. phaffii, integrated mutant hMVP gene, purified (ultracentrifugation, SEC)
B2: MVP(I36D) (natural protein)
chain: not shown
notes: major vault protein, human, gene GenBank BC015623.2 in pGAPZB, mutated by PCR; Predominantly half vaults (39-mer); same construct as m1 apart from the mutation; also called hMVP I36D; source: K. phaffii, integrated mutant hMVP gene, purified (ultracentrifugation, SEC)
B3: MVP(Q38A, N40A) (natural protein)
chain: not shown
notes: major vault protein, human, gene GenBank BC015623.2 in pGAPZB, mutated by PCR; Mixture of full vaults (78-mer) and half vaults (39-mer); same construct as m1 apart from the mutations; also called hMVP Q38A-N40A; source: K. phaffii, integrated mutant hMVP gene, purified (ultracentrifugation, SEC)

Molecular target: the molecule itself
Experiment: SEC-MALS; Shodex KW405-4F column, 0.33 mL/min, SEC buffer (25 mM HEPES, 150 mM NaCl, 1 mM TCEP, pH 7.5); full vault (78-mer) against half vaults (39-mer)

Binding result, binds:
B1, B2, B3
